Results from the supplement of paper PMC8728848.
Some of the results follow.

Key:
Assay in all cases: glycan array binding signal (z-score within array); higher = stronger binding
Conditions in all cases: glycan notation: IUPAC condensed, linker removed
[1] = target: Fuc(a1-2)[GalNAc(a1-3)]Gal(b1-3)GalNAc(a1-3)[Fuc(a1-2)]Gal(b1-4)GlcNAc
In short: (§1)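 Columns mapping to the same glycan were averaged after glycan names were converted to IUPAC-condensed notation. The data come from 3228 arrays in the Consortium for Functional Glycomics database, limited to those with an available protein sequence. Binding is reported as a within-array Z-score averaged across arrays of one protein sequence and across linkers.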

[2] = target: Fuc(a1-2)[GalNAc(a1-3)]Gal(b1-3)GalNAc(b1-3)Gal(a1-4)Gal(b1-4)Glc
In short: as §1

[3] = target: Fuc(a1-2)[GalNAc(a1-3)]Gal(b1-3)GlcNAc
In short: as §1

[4] = target: Fuc(a1-2)[GalNAc(a1-3)]Gal(b1-3)GlcNAc(b1-2)Man(a1-3)[Fuc(a1-2)[GalNAc(a1-3)]Gal(b1-3)GlcNAc(b1-2)Man(a1-6)]Man(b1-4)GlcNAc(b1-4)GlcNAc
In short: as §1

[5] = target: Fuc(a1-2)[GalNAc(a1-3)]Gal(b1-3)GlcNAc(b1-2)Man(a1-3)[Fuc(a1-2)[GalNAc(a1-3)]Gal(b1-3)GlcNAc(b1-2)Man(a1-6)]Man(b1-4)GlcNAc(b1-4)[Fuc(a1-6)]GlcNAc
In short: as §1

[6] = target: Fuc(a1-2)[GalNAc(a1-3)]Gal(b1-3)GlcNAc(b1-3)GalNAc
In short: as §1

[7] = target: Fuc(a1-2)[GalNAc(a1-3)]Gal(b1-3)GlcNAc(b1-6)GalNAc
In short: as §1

[8] = target: Fuc(a1-2)[GalNAc(a1-3)]Gal(b1-4)Glc
In short: as §1

[9] = target: Fuc(a1-2)[GalNAc(a1-3)]Gal(b1-4)GlcNAc
In short: as §1

[10] = target: Fuc(a1-2)[GalNAc(a1-3)]Gal(b1-4)GlcNAc(b1-2)Man
In short: as §1

[11] = target: Fuc(a1-2)[GalNAc(a1-3)]Gal(b1-4)GlcNAc(b1-2)Man(a1-3)[Fuc(a1-2)[GalNAc(a1-3)]Gal(b1-4)GlcNAc(b1-2)Man(a1-6)]Man(b1-4)GlcNAc(b1-4)GlcNAc
In short: as §1

[12] = target: Fuc(a1-2)[GalNAc(a1-3)]Gal(b1-4)GlcNAc(b1-2)Man(a1-3)[Fuc(a1-2)[GalNAc(a1-3)]Gal(b1-4)GlcNAc(b1-2)Man(a1-6)]Man(b1-4)GlcNAc(b1-4)[Fuc(a1-6)]GlcNAc
In short: as §1

[13] = target: Fuc(a1-2)[GalNAc(a1-3)]Gal(b1-4)GlcNAc(b1-3)Gal(b1-4)GlcNAc
In short: as §1

[14] = target: Fuc(a1-2)[GalNAc(a1-3)]Gal(b1-4)GlcNAc(b1-3)Gal(b1-4)GlcNAc(b1-3)Gal(b1-4)GlcNAc
In short: as §1

[15] = target: Fuc(a1-2)[GalNAc(a1-3)]Gal(b1-4)GlcNAc(b1-3)GalNAc
In short: as §1

[16] = target: Fuc(a1-2)[GalNAc(a1-3)]Gal(b1-4)GlcNAc(b1-3)[Fuc(a1-2)[GalNAc(a1-3)]Gal(b1-4)GlcNAc(b1-6)]GalNAc
In short: as §1

[17] = target: Fuc(a1-2)[GalNAc(a1-3)]Gal(b1-4)GlcNAc(b1-6)GalNAc
In short: as §1

[18] = target: Fuc(a1-2)[GalNAc(a1-3)]Gal(b1-4)[Fuc(a1-3)]GlcNAc
In short: as §1

[19] = target: Fuc(a1-2)[GalNAc(a1-3)]Gal(b1-4)[Fuc(a1-3)]GlcNAc(b1-3)GalNAc
In short: as §1

[20] = target: Fuc(a1-2)[GalNAc(a1-4)]Gal(b1-4)GlcNAc
In short: as §1

[21] = target: Fuc(a1-2)[GalNAc(b1-3)]Gal
In short: as §1

Fuc(a1-3)GlcNAc = target: Fuc(a1-3)GlcNAc
In short: as §1

[22] = target: Fuc(a1-3)[Gal(b1-4)]Glc6S
In short: as §1

[23] = target: Fuc(a1-3)[Gal(b1-4)]GlcNAc
In short: as §1

[24] = target: Fuc(a1-3)[Gal(b1-4)]GlcNAc(b1-2)Man
In short: as §1

[25] = target: Fuc(a1-3)[Gal(b1-4)]GlcNAc(b1-2)Man(a1-3)[Fuc(a1-3)[Gal(b1-4)]GlcNAc(b1-2)Man(a1-6)]Man(b1-4)GlcNAc(b1-4)GlcNAc
In short: as §1

[26] = target: Fuc(a1-3)[Gal(b1-4)]GlcNAc(b1-2)Man(a1-3)[Fuc(a1-3)[Gal(b1-4)]GlcNAc(b1-2)Man(a1-6)]Man(b1-4)GlcNAc(b1-4)[Fuc(a1-6)]GlcNAc
In short: as §1

[27] = target: Fuc(a1-3)[Gal(b1-4)]GlcNAc(b1-2)Man(a1-6)[Gal(b1-4)GlcNAc(b1-2)Man(a1-3)]Man(b1-4)GlcNAc(b1-4)GlcNAc
In short: as §1

[28] = target: Fuc(a1-3)[Gal(b1-4)]GlcNAc(b1-3)Gal(b1-3)[Fuc(a1-4)]GlcNAc
In short: as §1

[29] = target: Fuc(a1-3)[Gal(b1-4)]GlcNAc(b1-3)Gal(b1-4)[Fuc(a1-3)]GlcNAc
In short: as §1

[30] = target: Fuc(a1-3)[Gal(b1-4)]GlcNAc(b1-3)Gal(b1-4)[Fuc(a1-3)]GlcNAc(b1-3)Gal(b1-4)[Fuc(a1-3)]GlcNAc
In short: as §1

[31] = target: Fuc(a1-3)[Gal(b1-4)]GlcNAc(b1-3)GalNAc
In short: as §1

[32] = target: Fuc(a1-3)[Gal(b1-4)]GlcNAc(b1-4)Gal(b1-4)[Fuc(a1-3)]GlcNAc
In short: as §1

[33] = target: Fuc(a1-3)[Gal(b1-4)]GlcNAc(b1-4)Gal(b1-4)[Fuc(a1-3)]GlcNAc(b1-4)Gal(b1-4)[Fuc(a1-3)]GlcNAc
In short: as §1

[34] = target: Fuc(a1-3)[Gal(b1-4)]GlcNAc(b1-6)GalNAc
In short: as §1

[35] = target: Fuc(a1-3)[Gal(b1-4)]GlcNAc(b1-6)[Gal(b1-3)GlcNAc(b1-3)]Gal(b1-4)Glc
In short: as §1

[36] = target: Fuc(a1-3)[Gal(b1-4)]GlcNAc6S
In short: as §1

B1: EEA (Euonymus europaeus) (protein)
chain: MASTIIATGPTYRVYCRAAPNYNMIVGKGVAFLAPIDETNELQYWYKDDTYSYIKDEAGLPAFSLVNKATGLTLKHSNHHPVPVKLVTYNPNVVDESVLWSQADDRGDGYSAIRSLTNPASHLEAAPLNDWSYNGAIIMGGVWIDAYNQQWKIEPHTG
Which results are given for B1?
glycan array binding signal (z-score) [1]: -0.159; glycan array binding signal (z-score) [2]: -0.264; glycan array binding signal (z-score) [3]: 0.824; glycan array binding signal (z-score) [4]: -0.194; glycan array binding signal (z-score) [5]: -0.189; glycan array binding signal (z-score) [6]: -0.142; glycan array binding signal (z-score) [7]: -0.223; glycan array binding signal (z-score) [8]: -0.197; glycan array binding signal (z-score) [9]: -0.089; glycan array binding signal (z-score) [10]: -0.224; glycan array binding signal (z-score) [11]: -0.163; glycan array binding signal (z-score) [12]: -0.273; glycan array binding signal (z-score) [13]: -0.249; glycan array binding signal (z-score) [14]: 0.128; glycan array binding signal (z-score) [15]: -0.194; glycan array binding signal (z-score) [16]: 0.539; glycan array binding signal (z-score) [17]: -0.234; glycan array binding signal (z-score) [18]: -0.095; glycan array binding signal (z-score) [19]: -0.014; glycan array binding signal (z-score) [20]: -0.126; glycan array binding signal (z-score) [21]: -0.256; glycan array binding signal (z-score) (Fuc(a1-3)GlcNAc): -0.271; glycan array binding signal (z-score) [22]: 0.013; glycan array binding signal (z-score) [23]: -0.168; glycan array binding signal (z-score) [24]: -0.222; glycan array binding signal (z-score) [25]: -0.21; glycan array binding signal (z-score) [26]: -0.117; glycan array binding signal (z-score) [27]: -0.223; glycan array binding signal (z-score) [28]: -0.169; glycan array binding signal (z-score) [29]: -0.206; glycan array binding signal (z-score) [30]: -0.252; glycan array binding signal (z-score) [31]: -0.12; glycan array binding signal (z-score) [32]: -0.356; glycan array binding signal (z-score) [33]: -0.296; glycan array binding signal (z-score) [34]: -0.124; glycan array binding signal (z-score) [35]: -0.242; glycan array binding signal (z-score) [36]: -0.151
